# Measured values published in patent US20030104362A1 (published 2003).
# T1: CYB1-VP16 fusion protein (Candida albicans CYB1 coding sequence subcloned into pJG4-5) (Candida albicans, UniProt P47829 1-492)
# T1 construct: also called Candida cyclin B homolog
# T1 sequence: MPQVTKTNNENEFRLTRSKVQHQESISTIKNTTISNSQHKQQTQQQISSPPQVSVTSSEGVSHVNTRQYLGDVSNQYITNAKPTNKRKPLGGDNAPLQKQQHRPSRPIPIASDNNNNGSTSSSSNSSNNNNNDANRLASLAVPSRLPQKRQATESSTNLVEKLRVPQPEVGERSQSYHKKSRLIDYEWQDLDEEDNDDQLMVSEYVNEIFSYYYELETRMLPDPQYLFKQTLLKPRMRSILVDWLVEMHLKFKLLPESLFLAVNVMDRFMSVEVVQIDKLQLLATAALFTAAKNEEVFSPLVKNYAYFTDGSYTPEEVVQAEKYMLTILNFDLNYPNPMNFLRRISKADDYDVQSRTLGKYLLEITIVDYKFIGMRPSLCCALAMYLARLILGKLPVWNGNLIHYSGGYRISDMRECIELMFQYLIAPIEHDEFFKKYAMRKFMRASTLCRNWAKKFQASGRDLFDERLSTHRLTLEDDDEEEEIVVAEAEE
# Biological target: T1, CYB1-VP16 fusion protein (Candida …)
# Assay: interaction trap (yeast two-hybrid) in S. cerevisiae YEG048: CDK1-LexA fusion from pEG202 with CYB1-VP16 fusion from pJG4-5
binder,measurement,value
"CDK1-LexA fusion protein (Candida albicans CDK1 coding sequence subcloned into pEG202) (other, also called Candida cyclin-dependent kinase; not shown: LexA portion supplied by vector pEG202) MVELSDYQRQEKVGEGTYGVVYKALDTKHNNRVVALKKIRLESEDEGVPSTAIREISLLKEMKDDNIVRLYDIIHSDSHKLYLVFEFLDLDLKKYMESIPQGVGLGANMIKRFMNQLIRGIKHCHSHRVLHRDLKPQNLLIDKEGNLKLADFGLARAFGVPLRAYTHEVVTLWYRAPEILLGGKQYSTGVDMWSVGCIFAEMCNRKPLFPGDSEIDEIFRIFRILGTPNEEIWPDVNYLPDFKSSFPQWKKKPLSEAVPSLDANGIDLLDQMLVYDPSRRISAKRALIHPYFNDNDDRDHNNYNEDNIGIDKHQNMQ",binding result,binds
